In PubChem BioAssay (NCATS):
Inconclusive means that the source gave no clear call. Such entries were picked first, then a sample of the others. For part of these data: Potencies of inconclusive entries are left out as doubtful fits. Active and inactive are the calls of the source. Unless noted, the call rests on the fitted dose curve; in most records, active means well fitted curve in either direction with a large enough effect (not every such curve was filed as active); inconclusive means small, poorly fitted or top-dose-only effect, or another doubt; inactive means flat fitted curve, though single readings scatter.

How the values were obtained:
[1] = AP1 Signaling Pathway (AID 357); conditions: ME-180 AP-1-bla reporter, EGF-induced, beta-lactamase ratio, 5 h; at 7.69 µM (top of the series) unless noted;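 further: ME-180 reporter cells stimulated with EGF at its EC50 level; top concentration of the series differs between compounds; on the % scale 0 is the no-effect control and ±100 the full control effect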
How it was run: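 A ratiometric CCF4 readout (405 nm excitation; 460 and 530 nm emission) quantified AP-1-driven beta-lactamase in ME-180 cells after 5 h with compound and EC50 EGF; AC50 values were derived for activators and inhibitors.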

[2] = NFAT Signaling Pathway (AID 444); conditions: Jurkat NFAT-bla M1, carbachol, beta-lactamase ratio, 5 h; at 7.69 µM (top of the series) unless noted;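 further: carbachol stimulus at about its EC50 of 1 µM final; on the % scale 0 is the no-effect control and ±100 the full control effect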
How it was run: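 Read-out: CCF4 FRET ratio (460 nm/530 nm) after 1 h RT dye loading, used for %activity and AC50 from titration series. Cells: Jurkat NFAT-β-lactamase/M1 line, treated with compound plus 1 uM carbachol for 5 h, 37 °C.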

[3] = molecular target: Cytochrome P450 3A4 (Homo sapiens) (UniProt P08684); assay: qHTS Assay for Activators of Cytochrome P450 3A4 (AID 885; active means well fitted curve in the direction sought with a large enough effect; inconclusive means small, poorly fitted or top-dose-only effect, or another doubt; inactive means no such curve, though single readings can be large; an effect the other way counts as inactive or inconclusive; further: potency means the concentration at half of the fitted maximal effect; nearly all actives have a fitted effect of over 65% in size)
Chain of UniProt P08684 (P08684 whole entry, looked up): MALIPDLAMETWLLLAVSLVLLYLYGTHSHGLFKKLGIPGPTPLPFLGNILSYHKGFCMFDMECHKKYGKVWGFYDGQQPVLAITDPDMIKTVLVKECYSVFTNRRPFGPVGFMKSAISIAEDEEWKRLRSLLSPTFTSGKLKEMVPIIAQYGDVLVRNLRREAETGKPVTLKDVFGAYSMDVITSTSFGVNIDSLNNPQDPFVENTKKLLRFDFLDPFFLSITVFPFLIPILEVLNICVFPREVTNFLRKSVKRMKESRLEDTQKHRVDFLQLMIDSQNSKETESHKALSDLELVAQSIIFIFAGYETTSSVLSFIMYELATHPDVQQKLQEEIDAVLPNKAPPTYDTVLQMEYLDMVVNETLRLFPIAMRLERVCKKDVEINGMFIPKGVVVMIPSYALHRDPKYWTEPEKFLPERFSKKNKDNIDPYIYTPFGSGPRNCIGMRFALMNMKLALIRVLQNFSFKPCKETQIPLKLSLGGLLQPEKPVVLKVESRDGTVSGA
How it was run: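 Activators are scored by enhanced luminescence from CYP3A4 conversion of luciferin-PPXE (25uM, equal to KM) to luciferin, after 60 min at RT with an NADPH-regenerating system.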

[4] = Primary qHTS for small molecule stabilizers of the endoplasmic reticulum resident proteome: Secreted ER Calcium Modulated Protein (SERCaMP) assay (AID 1508630; active means well fitted curve in the direction sought with a large enough effect; inconclusive means small, poorly fitted or top-dose-only effect, or another doubt; inactive means no such curve, though single readings can be large; an effect the other way counts as inactive or inconclusive; further: potency means the concentration at half of the fitted maximal effect; on activity change, negative = inhibition: on the % scale 0 is the no-effect control and ±100 the full control effect); conditions: SH-SY5Y GLuc-SERCaMP (Gaussia luciferase released on ER calcium loss) secretion, thapsigargin, luminescence; activity change, negative = inhibition: at 38.4 µM (top of the series) unless noted
How it was run: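 The SH-SY5Y reporter protocol was run at 3 concentrations up to 38.3 uM (primary) or 11 concentrations (follow-up): 16 h compound, 100 nM thapsigargin for 4 h, then extracellular luciferase luminescence.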

[5] = qHTS Assay for Identification of Small Molecule Agonists for Hypoxia Response Element Signaling Pathway (AID 914; active means well fitted activation curve with a large enough effect in the signal ratio, with a control signal flat, not every such curve was filed as active; inconclusive means small, poorly fitted or top-dose-only effect, or effect the other way, or a change in a side signal; the % refers to the signal ratio; further: potency means the concentration at half of the fitted maximal effect; on activation: top concentration of the series differs between compounds; % of control where 0% means no effect); conditions: ME-180 (cervical carcinoma) HRE-bla reporter, beta-lactamase ratio, CoCl2, 17 h; activation: active compounds read high
How it was run: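 In Opti-MEM containing 0.5% dialyzed FBS and 10 mM HEPES, ME-180 HRE-bla cells received a compound titration and EC50 CoCl2. They were incubated 17 hours, then CCF4-loaded 2.5 hours at room temperature before ratio reading.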

[6] = molecular target: 3',5'-cyclic-AMP phosphodiesterase 4B (Homo sapiens) (UniProt Q07343); assay: qHTS Assay for Inhibitors of PDE-IV (AID 607; active means well fitted activation curve with a large enough effect in the main read-out, with a control signal flat, not every such curve was filed as active; inconclusive means small, poorly fitted or top-dose-only effect, or effect the other way, or a change in a side signal; further: potency means the concentration at half of the fitted maximal effect); conditions: HEK293 ACTOne CNG channel cells, membrane potential fluorescence; activation (PDE inhibition): at 22.9 µM (top of the series)
Chain of UniProt Q07343 (Q07343 whole entry, looked up): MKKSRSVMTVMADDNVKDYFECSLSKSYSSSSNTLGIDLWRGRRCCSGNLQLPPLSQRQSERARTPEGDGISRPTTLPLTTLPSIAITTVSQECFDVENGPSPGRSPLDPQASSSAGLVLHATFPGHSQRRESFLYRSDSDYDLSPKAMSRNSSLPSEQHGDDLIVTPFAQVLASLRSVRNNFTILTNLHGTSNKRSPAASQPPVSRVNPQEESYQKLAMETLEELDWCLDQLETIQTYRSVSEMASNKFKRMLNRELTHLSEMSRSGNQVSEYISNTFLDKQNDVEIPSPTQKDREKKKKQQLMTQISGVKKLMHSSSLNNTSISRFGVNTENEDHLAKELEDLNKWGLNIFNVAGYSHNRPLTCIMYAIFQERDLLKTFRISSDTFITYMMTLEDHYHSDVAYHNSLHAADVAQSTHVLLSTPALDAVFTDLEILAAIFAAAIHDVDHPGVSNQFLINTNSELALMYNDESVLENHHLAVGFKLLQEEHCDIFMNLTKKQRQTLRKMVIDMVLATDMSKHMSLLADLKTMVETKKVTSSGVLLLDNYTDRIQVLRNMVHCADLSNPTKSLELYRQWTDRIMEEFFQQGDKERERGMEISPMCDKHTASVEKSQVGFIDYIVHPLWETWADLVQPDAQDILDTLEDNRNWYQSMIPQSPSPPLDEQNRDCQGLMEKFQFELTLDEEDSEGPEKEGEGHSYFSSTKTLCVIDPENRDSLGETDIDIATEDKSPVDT
How it was run: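 The readout is membrane depolarisation from a cAMP-sensing CNG channel, detected with a potential dye at ex 535/em 590. Cells were HEK293-derived (endogenous PDE-IV) at 1000 cells/well, titrated up to 22.9 uM final.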

[7] = molecular target: Mitogen-activated protein kinase 10 (Mus musculus) (UniProt Q61831); assay: JNK3 AlphaScreen Assay (AID 530); conditions: JNK3 lysate, c-Jun phosphorylation; activity change, negative = inhibition: at 57.1 µM (top of the series);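 further: kinase came from lysate of stimulated human HepG2 cells; signal reports phosphorylation of biotinylated GST-cJun 1-79 at Ser73 with 10 µM ATP; on the % scale 0 is the no-effect control and ±100 the full control effect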
How it was run: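 Kinase buffer: 20 mM Tris-HCl pH 7.6, 10 mM MgCl2, 1 mM DTT, 0.1 mM Na3VO4, 0.01% Tween-20; ATP 10 uM. Substrate biotin-GST-cJun(1-79), enzyme from activated HepG2 lysates. Detection by Ser73 phospho-antibody AlphaScreen.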

[8] = molecular target: Glucocorticoid receptor (Homo sapiens) (UniProt P04150); assay: GR-EFC Redistribution (AID 451; calls by dose curve; further: potency means the concentration at half of the fitted maximal effect); conditions: CHO-K1 GR-EFC translocation, beta-gal luminescence, 2 h
Chain of UniProt P04150 (P04150 whole entry, looked up, the tested form may be a part): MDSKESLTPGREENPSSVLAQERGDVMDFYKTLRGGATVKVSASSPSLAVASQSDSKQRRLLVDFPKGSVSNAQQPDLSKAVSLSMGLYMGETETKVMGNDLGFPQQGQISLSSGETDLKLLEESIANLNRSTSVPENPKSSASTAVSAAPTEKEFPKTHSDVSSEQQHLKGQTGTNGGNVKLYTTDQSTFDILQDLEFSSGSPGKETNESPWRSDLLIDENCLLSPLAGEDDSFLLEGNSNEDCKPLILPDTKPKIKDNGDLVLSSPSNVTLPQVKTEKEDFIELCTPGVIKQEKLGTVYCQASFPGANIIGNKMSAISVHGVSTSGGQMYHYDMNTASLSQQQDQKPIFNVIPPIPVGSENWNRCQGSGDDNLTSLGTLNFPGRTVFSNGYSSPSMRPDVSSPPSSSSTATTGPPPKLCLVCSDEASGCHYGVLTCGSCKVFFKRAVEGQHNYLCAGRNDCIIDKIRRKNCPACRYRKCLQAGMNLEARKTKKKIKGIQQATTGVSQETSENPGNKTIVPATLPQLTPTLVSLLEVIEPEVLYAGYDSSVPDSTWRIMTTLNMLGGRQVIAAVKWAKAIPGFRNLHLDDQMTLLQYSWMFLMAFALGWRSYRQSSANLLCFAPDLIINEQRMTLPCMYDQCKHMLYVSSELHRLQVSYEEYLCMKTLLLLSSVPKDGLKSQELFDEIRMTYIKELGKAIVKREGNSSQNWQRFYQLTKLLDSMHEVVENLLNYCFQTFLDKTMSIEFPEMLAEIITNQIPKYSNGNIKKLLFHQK
How it was run: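 Translocation of GR-ED fusion to nuclear EA restores b-gal, read by luminescence after 1 h room-temperature detection. Engineered CHO-K1 biosensor cells, 1,000/well, exposed 2 h at 37 C to titrations up to 46 uM final.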
Tags describe the fitted curve by direction and shape or compound fluorescence and quenching.

**Q.** With `COCCNc1cc(-c2ccccc2C(F)(F)F)ncn1` as the compound, how does the activity change, negative = inhibition [1] read?
**A.** inactive: 1.05%

**Q.** What about the activity change, negative = inhibition [2] of the same compound?
**A.** inactive: 1.43%

**Q.** What about the Potency [3] of the same compound?
**A.** inconclusive [activator, partial curve]

**Q.** What about the Potency [4] of the same compound?
**A.** inactive

**Q.** For `O=S(=O)(c1ccccc1)N1CCC2(CCN(c3ccncc3)CC2)CC1`, which activity change, negative = inhibition [1] is on record?
**A.** inactive: 2.08%

**Q.** And the activity change, negative = inhibition [2]?
**A.** inconclusive: -75.6% [inhibitor]

**Q.** And the Potency [5]?
**A.** inconclusive [activator, partial curve]

**Q.** What about the Potency [4] of the same compound?
**A.** inconclusive [inhibitor, single point]

**Q.** Which activity change, negative = inhibition [1] does the source give for `COCCn1c(=O)c(-c2ccccc2)nc2cnc(Nc3cccc(OC)c3)nc21` here?
**A.** inconclusive: -71.4% [inhibitor]

**Q.** And the Potency [6]?
**A.** inconclusive [activator, partial curve]

**Q.** And the Potency [4]?
**A.** inconclusive [inhibitor, full curve, poor fit]

**Q.** For `COCCn1c(=O)c(-c2cccs2)nc2cnc(N3CCN(C)CC3)nc21`, which activity change, negative = inhibition [1] is on record?
**A.** inconclusive: 33.1% [activator]

**Q.** And the activity change, negative = inhibition [2]?
**A.** inconclusive: 30.2% [activator]

**Q.** What about the Potency [7] of the same compound?
**A.** inactive

**Q.** What about the Potency [5] of the same compound?
**A.** active: 2510 nM

**Q.** And the Potency [4]?
**A.** inconclusive [inhibitor, single point]

**Q.** Which results are given for `O=C(Nc1cccc(F)c1)N1CCCC2(CCN(C(=O)c3cc(C(F)(F)F)cc(C(F)(F)F)c3)CC2)C1`?
**A.** activity change, negative = inhibition [1]: inactive: -25.5%; Potency [8]: inconclusive [single point]; Potency [6]: inconclusive [activator, single point]; Potency [4]: inconclusive [inhibitor, single point]

**Q.** With `N#CCCn1c(=O)c(CCc2ccccc2)nc2cnc(N3CCOCC3)nc21` as the compound, how does the activity change, negative = inhibition [1] read?
**A.** inconclusive: -31.3% [inhibitor]

**Q.** And the Potency [6]?
**A.** inconclusive [activator, partial curve]

**Q.** And the activation [5]?
**A.** inconclusive: -21.6%

**Q.** What about the Potency [4] of the same compound?
**A.** inconclusive [inhibitor, partial curve]
